# Results taken from PubChem BioAssay AID504466 (National Center for Advancing Translational Sciences (NCATS), 2011).
# The whole screen tested about 330,000 compounds, of which about 4,200 (1.3%) were called active. Inconclusive results, whose numbers are uncertain, are shown with a selection of clear calls. Calls come from the whole dose curve; as a rule, active = well fitted activation curve with a large enough effect; inconclusive = small, poorly fitted or top-dose-only effect; inactive = no such curve, though single readings can be large or run the other way. Potencies of inconclusive entries are doubtful fits and often do not repeat.
# Assay: qHTS screen for small molecules that induce genotoxicity in human embryonic kidney (HEK293T) cells expressing luciferase-tagged ELG1; note: nearly all actives have a fitted effect of over 60% in size
# Settings: HEK293T ELG1-luciferase reporter, luminescence, 16 h; series mostly up to 46 µM
# Procedure, shortened: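 Cells (2,000/well) expressing the ELG1-luciferase fusion are dosed by pin tool and kept 16 hr at 37 °C, 5% CO2. Signal comes from ONE-Glo luciferase reagent after 30 min at room temperature.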
# Potency is the fitted concentration of half-maximal effect; tags give direction and shape of the fitted curve.
row,Compound,Potency
1,COc1ccc(OC)c(/C=C/C(=O)OCC(=O)N2C(C)CCCC2C)c1 (stereo not drawn),inactive
2,COc1ccc(C(=O)Nc2ccc(NC(=O)c3cccs3)cc2)cc1Cl,"inconclusive: 10.3 µM [activator, partial curve, poor fit]"
3,Cc1ccc(NC(=O)c2ccc(OCC3CCCO3)cc2)nc1 (stereo not drawn),"inconclusive: 1.83 µM [activator, full curve, poor fit]"
4,C(=N\NC1=Nc2cccc3cccc1c23)/c1cccnc1,"inconclusive: 5.17 µM [activator, partial curve, poor fit]"
5,Cc1ccc2[nH]c3c(N4CCc5ccccc5C4)ncnc3c2c1,inactive
6,CCCn1c2ccccc2c2nnc(SC(CC)C(=O)Nc3sc4c(c3C#N)CCCC4)nc21 (stereo not drawn),inactive
7,CN(Cc1ccon1)Cc1cn(C)nc1-c1cccc(Cl)c1,"inconclusive: 16.4 µM [activator, single point]"
8,Nc1c2c(nc3ccc(Br)cc13)N(C1CCCCC1)CC2,inactive
9,O=C(NCCc1ccc(F)cc1)NC12CC3CC(CC(C3)C1)C2,"inconclusive: 2.59 µM [activator, full curve]"
10,Cc1nc2ccc(NC(=O)c3oc4ccc(F)cc4c3C)cc2s1,"inconclusive: 29.1 µM [activator, single point]"
11,Cn1c(C(=O)NCCC2=CCCCC2)cc2c(=O)n3ccccc3nc21,"inconclusive: 2.51 µM [activator, full curve, poor fit]"
12,COc1cccc(/C=C2\N=C3CCCCCN3C2=O)c1,"inconclusive: 11.2 µM [activator, partial curve, poor fit]"
13,CC1=NN(c2ccccc2)C(=O)C1N=Nc1ccccc1 (stereo not drawn),"inconclusive: 9.2 µM [activator, partial curve]"
14,Cc1cc(C)n(CC(=O)O)c(=O)c1[N+](=O)[O-],inactive
15,O=C(COc1ccc(Cl)cc1Cl)N/N=C/CCc1ccccc1,inactive
16,Cc1cc(Nc2cnc3ccccc3n2)n(-c2ccccc2)n1,inactive
17,c1ccc(Cc2nc(-c3ccccn3)no2)cc1,"inconclusive: 25.9 µM [activator, single point]"
18,COc1ccc(/C(C)=N/Nc2ccc(C(=O)O)cc2)c(OC)c1,"inconclusive: 9.2 µM [activator, partial curve]"
19,O=C(CN1CCN(S(=O)(=O)c2ccc(F)c(F)c2)CC1)Nc1ccccc1C(=O)NC1CC1,inactive
20,Cc1ccc(C(=O)N(C)CCOc2ccccc2)cc1S(=O)(=O)N1CCCCC1,inactive
21,COc1ccccc1/C=N\N=C(\N)c1ccccn1,"inconclusive: 13 µM [activator, partial curve]"
22,COc1ccc(OC2C(=O)N(c3ccc(C)c(C)c3)C2c2ccc(OC)c(OC)c2)cc1 (stereo not drawn),inactive
23,CSc1nc2ccc(NC(=O)COc3ccccc3F)cc2s1,"inconclusive: 14.6 µM [activator, partial curve, poor fit]"
24,Cc1ccc(SCC(=O)N2CCOCC2)cc1,"inconclusive: 20.6 µM [activator, partial curve, poor fit]"
25,Cc1cccc(N/C=C(\[N+](=O)[O-])S(=O)(=O)c2ccccc2)c1C,inactive
26,COc1cccc(-c2noc(C3CCCN(C(=O)c4cccc(F)c4)C3)n2)c1 (stereo not drawn),inactive

row,Compound,Potency
1,NS(=O)(=O)c1ccc(CNC(=S)NC2CC2)cc1,inactive
2,CSc1nc(-c2ccccc2)nc(N)c1C(C)=O,inactive
3,O=[N+]([O-])c1cc(S(=O)(=O)CCCN2CCOCC2)ccc1F,"inconclusive: 23.1 µM [activator, single point]"
4,Cc1ccc(OCc2cc(C(=O)N3CC4C[C@@H]5CC3C[C@H](C4)C5)no2)cc1C,"inconclusive: 3.66 µM [activator, full curve]"
5,CC(=O)c1cccc(OCC(O)CNCCOc2ccc(C)cc2)c1 (stereo not drawn),inactive
6,C=CCc1c(C)nc2cc(-c3ccccc3)[nH]n2c1=O,"inconclusive: 2.06 µM [activator, partial curve]"
7,C[C@@H]1CN([C@H](C)CO)C(=O)c2cc(NC(=O)Nc3ccc(C(F)(F)F)cc3)ccc2O[C@H]1CN(C)Cc1ccc(Cl)c(Cl)c1,inactive
8,O=C(CSc1nnc(-c2cccs2)n1-c1ccccc1)Nc1ccccc1,"inconclusive: 29.1 µM [activator, single point]"
9,Cc1nn2cc(-c3cccc(Cl)c3)cnc2c1Br,"inconclusive: 20.6 µM [activator, single point]"
10,COc1cc(NC(=O)c2cc(CC(C)C)on2)c(OC)cc1Cl,"inconclusive: 23.1 µM [activator, single point]"
11,COc1ccc(NC(=S)NC(=O)C2CCC2)cc1,"inconclusive: 20.6 µM [activator, partial curve, poor fit]"
12,Cc1ccc(NC(=O)OCc2cncs2)cc1,"inconclusive: 16.4 µM [activator, partial curve]"
13,CCCc1ccc(OCc2ccc(C(=O)N/N=C/c3cccc([N+](=O)[O-])c3)o2)c(OC)c1,"inconclusive: 23.1 µM [activator, partial curve, poor fit]"
14,Cn1c(N2CCN(C(=O)Nc3ccc(F)cc3)CC2)nc2ccccc21,inactive
15,COC(=O)C1=C(C)N(c2cc(Cl)cc(Cl)c2)C(=O)C1,inactive
16,CCOc1cc(CNc2ncnc3nc[nH]c23)ccc1OC,inactive
17,Cc1ccc(OCC(=O)Nc2nnc(C3CCCO3)s2)c(Br)c1 (stereo not drawn),inactive
18,CC(C)(C)c1cc(-n2ccnc2)n2ncc(-c3ccc(Cl)cc3)c2n1,"inconclusive: 20.6 µM [activator, partial curve, poor fit]"
19,CCn1nc(C)c(/C=N/NC(=O)Cc2ccc(Cl)cc2)c1C,"inconclusive: 16.4 µM [activator, single point]"
20,COc1ccc(C(CNc2ccc(C(F)(F)F)cn2)N(C)C)cc1OC (stereo not drawn),inactive
21,Nc1nonc1OCCc1ccccc1,"inconclusive: 20.6 µM [activator, single point]"
22,O=C(NCCC1=CCCCC1)c1cnsn1,active: 16.4 µM
23,O=C(CSc1ccsc1[N+](=O)[O-])N1CCCCC1,inactive
24,CCn1ncc(Br)c1C(=O)Nc1ccc(C(C)C)cc1,inactive
25,O=C(Nc1nnc(-c2ccccc2Cl)o1)c1cccnc1,"inconclusive: 14.6 µM [activator, partial curve]"
26,COc1ncnc2sc(-c3ccccc3)cc12,"inconclusive: 20.6 µM [activator, partial curve, poor fit]"

row,Compound,Potency
1,COc1ccccc1N(C)S(=O)(=O)c1ccc(C(=O)N2CCCc3ccccc32)cc1,inactive
2,COCCCn1c(SCc2ccccc2)nc2cc(OC)c(OC)cc2c1=N,inactive
3,O=C(Nc1cccc(C(F)(F)F)c1)c1cc[n+]([O-])cc1,inactive
4,CCOc1ccc(-n2nc3cc(C)c(N)cc3n2)cc1,"inconclusive: 0.891 µM [activator, full curve, poor fit]"
5,N#Cc1ccc(OCc2ccc(C(=O)O)o2)cc1,inactive
6,C=CCOc1ccc(/C=C2\SC(=S)N(C(C(=O)O)c3ccccc3)C2=O)cc1 (stereo not drawn),inactive
7,COc1cccc(-c2csc(NC(C)=O)n2)c1,active: 10.3 µM
8,Cc1cc(/C=N/NC(=O)C(=O)NCc2ccccn2)c(C)n1-c1ccccc1,"inconclusive: 23.1 µM [activator, partial curve, poor fit]"
9,COc1ccccc1Nc1ccc(C(=O)NC2CCCCC2)cn1,"inconclusive: 20 µM [activator, single point]"
10,COc1ccc(-c2cn3ccccc3n2)cc1OC,"inconclusive: 11.6 µM [activator, partial curve]"
11,Cc1nc(C)c(-c2csc(NCc3ccco3)n2)s1,active: 12.6 µM
12,Cc1c2ccccc2nc2c(F)c(NC(C)C)c(F)c(F)c12,"inconclusive: 13 µM [activator, partial curve]"
13,Fc1ccc(-n2ncc3c(SCc4cccnc4)ncnc32)cc1,active: 23.1 µM
14,Cc1cc(N2CCC(C)CC2)n2ncc(-c3ccccc3)c2n1,active: 0.411 µM
15,CCOC(=O)C(C)Oc1cccc2c(=O)n(CC(=O)Nc3ccc4c(c3)OCCO4)ccc12 (stereo not drawn),"inconclusive: 29.1 µM [activator, single point]"
16,O=C(Nc1nc2c(s1)CN(Cc1ccccc1)CC2)C1CCC1,"inconclusive: 4.11 µM [activator, full curve]"
17,COc1ccc(NC(=O)CNS(=O)(=O)c2ccccc2)cc1Cl,inactive
18,COc1ccc2cc(-c3ccon3)ccc2c1,"inconclusive: 16.4 µM [activator, partial curve, poor fit]"
19,Cc1ccccc1-n1c(C)nc2ccccc21,"inconclusive: 32.6 µM [activator, partial curve, poor fit]"
20,COc1ccc(C(=O)NC(NC(=O)c2ccc(OC)cc2)c2ccccc2F)cc1,"inconclusive: 29.1 µM [activator, partial curve, poor fit]"
21,COc1ccc(OC(=O)c2c(C)nn(-c3ccccc3)c2C)cc1,"inconclusive: 20.6 µM [activator, partial curve, poor fit]"
22,CCCCn1nnc(NC(=O)c2ccco2)n1,"inconclusive: 16.4 µM [activator, partial curve]"
23,COc1ccc2nc(Nc3ccccc3OC)sc2c1,"inconclusive: 1.03 µM [activator, partial curve]"
24,O=C(CCCCCn1c(=S)[nH]c2ccc(N3CCOCC3)cc2c1=O)NCc1cccc(Cl)c1,inactive
25,Cc1cc(C)nc(NN2C(=O)/C(=C/c3ccccc3)SC2=S)n1,inactive
26,Cc1cccc(NC(=O)C(=O)NCC2CCCN2S(=O)(=O)c2ccccc2)c1 (stereo not drawn),"inconclusive: 9.2 µM [activator, partial curve]"
